Experimental data taken from PubChem BioAssay AID1508623 (National Center for Advancing Translational Sciences (NCATS), 2021).
The campaign covered roughly 48,000 compounds. About 450 (0.94%) were called active. Not shown: some 19% with an inconclusive outcome. Calls follow the shape of the dose curve; as a rule, active = well fitted inhibition curve with a large enough effect; inconclusive = small, poorly fitted or top-dose-only effect; inactive = no such curve, though single readings can be large or run the other way. The list shows a part of the results.

assay: Primary qHTS for Identification of Small Molecule Inhibitors of Huntingtin Promoter Activity; settings: HEK293 HTT promoter firefly luciferase reporter (activity 0% = vehicle and -100% = no light), 24 h; series mostly up to 57.5 µM; activity change, negative = inhibition: at the top concentration; also: nearly all actives have a fitted effect of over 50% in size
Summary of the method: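 HEK293 luciferase promoter-reporter cells (2,500/well) plated 24 h, then compounds added at up to 57.5 uM final for 24 h at 37 °C. Firefly luminescence by Dual-Glo, normalized to vehicle (0%) and zero RLU (-100%).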
Potency is read from the fitted curve at half-maximal effect.

SMILES | activity change, negative = inhibition | Potency
O=C(NCc1ccc(Cl)cc1)C(=O)Nc1ccc(Br)cc1 | inactive: -16.5% [at 11.5 µM] | –
CCc1cccc(NC(=O)Cn2c(=O)n(Cc3ccccc3)c(=O)c3c2c2cc(OC)ccc2n3C)c1 | inactive: -7.15% | –
CCc1ccccc1NC(=O)Cn1c(-c2nonc2N)nc2ccccc21 | inactive: 3.16% | –
COC(=O)c1c(NC(=O)CCCOc2ccc(C(C)(C)C)cc2)sc2c1CCC(C)C2 (stereo not given) | inactive: -10% | –
CC1CCN(C(=O)CSc2nnc(-c3ccccc3Cl)o2)CC1 | inactive: 4.66% | –
COc1ccc(NC(=O)/C(C#N)=C/c2ccc(OCc3cc(=O)n4nc(C)sc4n3)cc2)cc1 | inactive: -8.57% | –
CCN(C(=O)Cn1nc(Cc2cccnc2)c2ccccc2c1=O)c1ccccc1F | inactive: -12% | –
OCCN1C[C@H](O)[C@@H](O)[C@H](O)[C@@H]1CO | inactive: 5.34% | –
Cc1cccc(NC(=O)C2CCN(c3nnc(-n4c(C)ccc4C)s3)CC2)c1C | inactive: -23.7% | –
Cc1ccc(S(=O)(=O)NCCc2cn3c(C)csc3n2)cc1 | inactive: 0.132% | –
COc1ccc(NC(=O)CCNS(=O)(=O)c2cccc3nsnc23)cc1 | inactive: -20.4% | –
Cc1ccc2nc(-c3cc(NC(=O)c4ccc5c(c4)OCCO5)ccc3Cl)oc2c1 | inactive: -6.37% | –
Cc1ccc(N2CC(c3nc4ccccc4n3CCC3CCCCC3)CC2=O)cc1 (stereo not given) | inactive: -4.71% | –
CCOc1ccc(C(CC(=O)O)N2Cc3ccccc3C2=O)cc1OC (stereo not given) | inactive: -4.73% | –
COc1ccc(C2c3c(oc4ccc(F)cc4c3=O)C(=O)N2Cc2ccc3c(c2)OCO3)cc1 (stereo not given) | inactive: 0.0356% | –
N#C/C(=C\c1ccccc1)c1nc(-c2cc3cc(Br)ccc3oc2=O)cs1 | inactive: -28% [at 11.5 µM] | –
Cc1cccc(N(C)C(=O)c2cc(S(=O)(=O)N3CCCC3)cn2C)c1 | inactive: -2.71% | –
COC(=O)c1ccccc1NC(=O)NCCc1c(C)nn(C)c1C | inactive: -11.9% | –
COc1cccc(N2CCN(S(=O)(=O)c3ccc4[nH]c5c(c4c3)CCCC5)CC2)c1 | inactive: -0.249% | –
O=C(Nc1ccccc1Br)C1CCCN(S(=O)(=O)c2cccc3nsnc23)C1 (stereo not given) | inactive: -18.7% | –

SMILES | activity change, negative = inhibition | Potency
Cc1cccc(NC(=O)c2c(NC(=O)C(F)(F)F)sc3c2CCCCC3)c1 | – | active: 2 µM
O=C(NCCS(=O)(=O)N1CCN(c2ccccc2)CC1)C(c1ccccc1)c1ccccc1 | inactive: -20% | –
O=C1CC(c2ccccc2)Cc2[nH]c(=O)c(C(=O)Nc3cccc(F)c3)cc21 (stereo not given) | inactive: -27.4% | –
O=C(CSc1nc2c([nH]c3ccccc32)c(=O)n1-c1ccc(F)cc1)N1CCCCC1 | inactive: -4.34% | –
CCc1ccc(OCC(=O)N(Cc2ccc(Cl)cc2)C2CCS(=O)(=O)C2)cc1 (stereo not given) | inactive: -25.7% | –
Cn1c(NCCO)nc2c1c(=O)n(Cc1ccccc1Cl)c(=O)n2C | inactive: 4.08% | –
Cc1nnc(C(=O)NC(C)(C)c2nc(C(=O)NCc3ccc(F)cc3)c(O)c(=O)n2C)o1 | inactive | –
COc1cccc(Oc2nc3c(c(=O)n(Cc4ccccc4F)c(=O)n3C)n2C)c1 | inactive: 34% [at 11.5 µM] | –
COc1cccc(N2CCN(C(=O)c3c(C)oc4ncnc(N5CCOCC5)c34)CC2)c1 | inactive: -10.7% | –
Cc1c(C(=O)N(C)C)sc2c1c(=O)n(-c1ccc(Cl)c(Cl)c1)c(=O)n2CC(=O)Nc1cccc(C(F)(F)F)c1 | inactive: -0.722% | –
CC(C)c1ccc(NC(=O)CN(C)S(=O)(=O)c2ccc3c(c2)c(=O)n(C)c(=O)n3C)cc1 | inactive: -19.2% | –
CCOC(=O)Cc1ccc(NC(=O)NCc2ccc3c(c2)CCN3C(=O)CC)cc1 | inactive: -40% | –
O=C(CCS(=O)(=O)c1cc(Br)cc2c1N(C(=O)C1CC1)CC2)Nc1ccc(Br)cc1F | inactive: -7.73% | –
CCc1ccccc1N(C)C(=O)Cn1cnc2sc(C)c(S(=O)(=O)N3CCN(c4ncccn4)CC3)c2c1=O | inactive: -12% | –
Cc1ccc(NS(=O)(=O)c2cc(Br)cc3c2N(C(=O)C2CC2)CC3)cc1C | – | active: 5.62 µM
COC(=O)c1ccc(Cn2nnc3sc4c(c3c2=O)CCC(C)C4)cc1 (stereo not given) | inactive: 33.2% | –
O=C(CCCN1C(=O)C(c2ccccc2)Oc2cccnc21)Nc1ccc(Br)cc1F (stereo not given) | inactive: -16.3% | –
COc1ccc2c(CNCCc3cccs3)c(C(=O)O)n(Cc3ccccc3)c2c1 | inactive: -20.6% | –
CCOc1ccc(CCNC(=O)c2cc3c(=O)[nH]c4ccc(C)cc4c3s2)cc1OCC | inactive: -17.1% | –
COc1ccc(-c2nc(SCC(=O)NCCc3ccc(OC)c(OC)c3)n[nH]2)cc1 | inactive: 13.8% | –

SMILES | activity change, negative = inhibition | Potency
O=C(NC1CCCc2ccccc21)c1ccc2c(c1)sc1nc(-c3ccc(F)cc3)cn12 (stereo not given) | inactive: 10% | –
Cc1ccc(Cl)cc1NC(=O)C1CCC(CNS(=O)(=O)c2cccc3nsnc23)CC1 (stereo not given) | inactive: -9.29% | –
CC(=O)N(Cc1cccnc1)c1nc2c(C)c(C)ccc2s1 | inactive: -26.7% | –
CCc1ccc2c(c1)NC(c1cccs1)=NC(c1ccc(F)cc1)=N2 | inactive: 16.1% | –
O=Cc1ccc(O)c(O)c1O | inactive: -8.2% | –
Cc1ccc2oc3c(c(=O)c2c1)C(c1ccc(F)cc1)N(Cc1ccc2c(c1)OCO2)C3=O (stereo not given) | inactive: -3.91% | –
CC(=O)c1cccc(NC(=O)c2sc(-n3nc(C)c(Cc4ccc5c(c4)OCO5)c3C)nc2C)c1 | inactive: -19.6% | –
COc1ccccc1CCNC(=O)C(=O)NCC(c1ccc2c(c1)OCO2)N1CCOCC1 (stereo not given) | inactive: -28% | –
COc1ccccc1OCC(=O)NCC(c1ccc(Cl)cc1)N1CCCCC1 (stereo not given) | inactive: -20.1% | –
COc1cccc(CNC(=O)C(=O)Nc2c3c(nn2-c2ccccc2)CSC3)c1 | inactive: -25.7% | –
CCN(C(=O)C1CCN(S(=O)(=O)c2ccc3c(c2)CCCN3C(C)=O)CC1)c1cccc(C)c1 | inactive: -22.9% | –
CCOC(=O)c1c(NC(C)=O)c2c3c(sc2n1Cc1nc(-c2cccc(Cl)c2)oc1C)CCCC3 | inactive: -12.2% | –
CCN(CC)C(=O)CSc1nc(-c2ccccc2F)nc2c1Cc1c(CO)cnc(C)c1O2 | inactive: -23.6% | –
CC(C)(C)OC(=O)N1CCC(c2c(C(=O)N3CCCCC3)cnn2-c2ccc(Cl)cc2)CC1 | inactive: -8.64% | –
COC(=O)c1ccccc1NC(=O)CSc1nc2ccsc2c(=O)n1CCC(C)C | inactive: -3.39% | –
CCOc1cc(C(=O)NCCc2csc3nc(-c4ccc(C)cc4)nn23)cc(OCC)c1OCC | inactive: -16.4% | –
COc1ccc(Cc2nc3ccccc3[nH]c2=O)cc1 | inactive: -10.5% | –
C=Cc1ccc(Cn2c(C)c(CNCc3cccc(Br)c3)c(C(=O)O)c2C)cc1 | inactive: 16.5% | –
Cc1cccc(Cn2c(CNS(=O)(=O)c3ccc4c(c3)CCCC4)nc3cccnc32)c1 | inactive: -19.8% | –
C[C@@H]1C[C@H]2[C@@H]3C[C@H](F)C4=CC(=O)C=C[C@]4(C)[C@@]3(F)[C@@H](O)C[C@]2(C)[C@@]1(O)C(=O)CO | inactive: 10% | –
